Results reported in the supplement of paper PMC12217912.
The other results are listed elsewhere or left out. Sequences were assembled here from the parent chain. Inactive controls read about 0.05.

B1: TEV protease; numbered along this chain (parent)
chain: MGESLFKGPRDYNPISSSICHLTNESDGHTTSLYGIGFGPFIITNKHLFRRNNGTLVVQSLHGVFKVKDTTTLQQHLVDGRDMIIIRMPKDFPPFPQKLKFREPQREERICLVTTNFQTKSMSSMVSDTSCTFPSGDGIFWKHWIQTKDGQCGSPLVSTRDGFIVGIHSASNFTNTNNYFTSVPKNFMELLTNQEAQQWVSGWRLNADSVLWGGHKVFMVKPEEPFQPVKEATQL

Variants of: B1
Assay: raw area under fraction-flipped curve 0-4 h after induction (AUC4h, not background-subtracted), DNA-recorder readout of cleavage of the substrate (dimensionless); higher = more cleavage of the substrate by the protease variant
Details: temperature: 34 °C; time window: 0-4 h after rhamnose induction
Description: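 In vivo DNA recorder in E. coli TOP10(DE3) ΔrhaA at 34 °C. Each TEVp single-site mutant (parent TEVp 0) is paired with a single-site variant of the 7-mer TEVs (canonical ENLYFQ|S). The substrate sits between flexible linkers in a Bxb1-sfGFP-TEVs-SsrA fusion, so cleavage stabilises Bxb1 and speeds flipping of a recombination array, read by NGS. The value is the raw area under the fraction-flipped curve over 0-4 h after rhamnose induction (AUC4h), with ≥20 reads per time point. It is not background-subtracted; inactive controls average about 0.047.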
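Note: Bxb1 expression induced with 0.2% (w/v) L-rhamnose at OD600 near 0.5, cultures sampled hourly, flipped fraction per protease–substrate barcode pair counted by paired-end Illumina sequencing.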

Variant | area with substrate ENLYFCS | area with substrate ENLYFDS | area with substrate ENLYFES | area with substrate ENLYFFS | area with substrate ENLYFHS | area with substrate ENLYFIS | area with substrate ENLYFKS | area with substrate ENLYFLS | area with substrate ENLYFMS | area with substrate ENLYFNS | area with substrate ENLYFPS | area with substrate ENLYFRS | area with substrate ENLYFSS | area with substrate ENLYFTS | area with substrate ENLYFVS | area with substrate ENLYFWS | area with substrate ENLYFGS | area with substrate ENLYFYS
I15S | 0.0575 | 0.0561 | 0.0613 | 0.0684 | 0.0461 | 0.0512 | 0.0567 | 0.0345 | 0.049 | 0.0613 | 0.0534 | 0.0576 | 0.0543 | 0.0518 | 0.0553 | 0.0304 | – | –
S17Q | 0.0631 | 0.0457 | 0.0608 | 0.0769 | 0.0632 | 0.0588 | 0.0552 | 0.0637 | 0.0723 | 0.0618 | 0.062 | – | 0.053 | 0.0478 | 0.0554 | 0.04 | 0.0407 | –
H21W | 0.0545 | 0.0679 | 0.0611 | – | 0.0342 | – | – | 0.0307 | 0.0648 | 0.06 | 0.0538 | 0.0549 | 0.0645 | 0.0632 | 0.0467 | 0.0557 | – | 0.0532
T23I | 0.0674 | 0.0651 | – | 0.0756 | – | 0.0535 | 0.0681 | 0.0506 | 0.0738 | 0.0682 | 0.0547 | 0.0672 | 0.0557 | 0.0961 | – | 0.0705 | – | 0.0507
S26K | 0.0599 | 0.0613 | 0.0607 | 0.0578 | 0.063 | 0.0532 | 0.0674 | 0.0584 | 0.0701 | 0.0592 | 0.0559 | 0.0679 | – | 0.0762 | 0.0717 | 0.0583 | 0.0706 | 0.061
D27K | 0.0461 | – | 0.0479 | – | 0.0616 | 0.0545 | – | – | 0.065 | 0.0595 | 0.0597 | 0.0686 | – | – | – | – | – | 0.0521
T30F | 0.0585 | – | 0.0836 | 0.0712 | 0.055 | 0.0559 | 0.0638 | – | 0.0598 | 0.0651 | 0.0608 | 0.0673 | 0.0509 | 0.0583 | – | 0.0543 | 0.0543 | 0.0576
T30W | 0.0481 | – | 0.0708 | 0.0703 | – | 0.0569 | 0.073 | 0.064 | 0.0554 | 0.0791 | 0.0581 | 0.0485 | 0.057 | 0.0543 | 0.0677 | – | – | –
T31P | 0.0636 | 0.0524 | 0.0729 | 0.0615 | 0.0516 | 0.043 | 0.0504 | 0.0587 | 0.0528 | – | 0.0546 | 0.0701 | 0.0632 | 0.0589 | – | 0.0611 | 0.0484 | 0.0472
I36D | 0.0421 | 0.0499 | 0.0338 | 0.0535 | – | 0.0398 | 0.0478 | – | 0.0425 | 0.0464 | 0.0365 | 0.0501 | 0.0464 | 0.0501 | 0.0452 | 0.0212 | 0.0297 | 0.0328
F41W | 0.041 | 0.0595 | 0.0486 | 0.0621 | 0.0628 | 0.0586 | 0.0681 | 0.0721 | – | 0.0598 | 0.0475 | 0.0561 | 0.0539 | 0.0637 | – | 0.057 | – | 0.0192
T44K | 0.0265 | 0.0402 | 0.048 | 0.0456 | 0.0403 | 0.0523 | – | 0.0458 | 0.0422 | 0.0476 | 0.041 | 0.0329 | 0.0424 | 0.0415 | 0.0459 | 0.0291 | – | –
N45H | 0.0509 | 0.0613 | – | 0.0682 | – | 0.0567 | 0.0835 | 0.0556 | 0.0677 | 0.0589 | 0.064 | 0.0584 | 0.0725 | 0.0487 | – | 0.0596 | 0.0718 | 0.0633
F49K | 0.0526 | – | 0.0554 | 0.0569 | 0.0548 | 0.0464 | 0.0538 | 0.0517 | 0.0523 | 0.0623 | 0.0585 | 0.084 | 0.0416 | 0.0511 | 0.0256 | 0.0506 | – | 0.0376
R50D | 0.0668 | – | 0.0746 | – | – | 0.0645 | – | 0.0714 | 0.0479 | 0.0723 | – | – | 0.0359 | – | – | 0.0458 | – | –
R51A | 0.0524 | 0.0545 | 0.0682 | 0.064 | 0.0654 | 0.0553 | 0.0493 | – | 0.0659 | 0.072 | 0.0593 | – | – | – | – | 0.0505 | 0.063 | –
V57L | 0.0623 | 0.0455 | 0.045 | 0.0737 | 0.0547 | 0.0539 | 0.06 | – | 0.0663 | 0.0066 | 0.0422 | 0.0665 | – | – | – | 0.0598 | – | 0.0581
L73P | 0.0449 | – | 0.0368 | 0.0598 | 0.0971 | 0.0493 | 0.0558 | – | 0.0621 | 0.0525 | 0.0524 | 0.0603 | 0.0605 | 0.0562 | 0.0439 | – | 0.0609 | 0.0514
Q74V | 0.0614 | 0.0552 | 0.0579 | 0.0705 | 0.0602 | 0.0555 | – | 0.0785 | 0.064 | 0.0477 | 0.0545 | – | 0.0631 | 0.0316 | 0.0534 | 0.0468 | – | 0.0404
V78C | 0.0665 | 0.055 | 0.0625 | 0.0674 | – | 0.0539 | 0.0704 | – | 0.0697 | – | 0.0561 | 0.0304 | 0.0517 | – | 0.0503 | 0.0545 | – | –
V78F | 0.0716 | 0.0595 | 0.0625 | 0.0631 | 0.0492 | 0.0563 | 0.0454 | – | 0.0668 | – | 0.0613 | – | 0.0555 | – | – | – | – | 0.0552
V78S | 0.0697 | – | 0.0572 | 0.0636 | – | 0.0467 | 0.0587 | 0.0735 | 0.0598 | 0.0706 | 0.0614 | 0.0513 | 0.0869 | – | 0.0612 | 0.0483 | – | 0.0513
M83T | 0.0588 | 0.0672 | 0.0659 | – | 0.0213 | 0.0554 | 0.0515 | – | 0.0534 | 0.0583 | 0.057 | 0.0585 | 0.0682 | 0.0562 | 0.0648 | 0.0561 | – | –
I84W | 0.0578 | – | 0.0585 | 0.0575 | 0.0558 | 0.0571 | 0.0401 | 0.0602 | 0.0411 | 0.0631 | 0.0555 | – | 0.0563 | 0.058 | 0.059 | 0.0409 | 0.0558 | 0.0433
I85P | 0.0368 | 0.0388 | 0.0256 | 0.0428 | 0.0408 | 0.038 | 0.0425 | 0.0394 | – | 0.0401 | 0.0281 | – | – | – | 0.0175 | 0.0406 | 0.0412 | 0.0473
